Test results: the supplement of paper PMC4604168 (melanoma cell lines)
The list shows a part of the results. Repeats are few or missing, and single values can be far off.

What was measured:
Assay in all cases: cell count relative to DMSO control; melanoma cells; higher = more viable cells
Conditions in all cases: library dose: standard library concentration; 72 h
G361 = tested on: G361
IPC-298 = tested on: IPC-298
IST-MEL1 = tested on: IST-MEL1
LB2518-MEL = tested on: LB2518-MEL
LOXIMVI = tested on: LOXIMVI
MEL-HO = tested on: MEL-HO
MZ2-MEL = tested on: MZ2-MEL
MeWo = tested on: MeWo
RPMI7951 = tested on: RPMI7951
RVH-421 = tested on: RVH-421
SkMel28 = tested on: SkMel28
SkMel2 = tested on: SkMel2
SkMel30 = tested on: SkMel30
SkMel5 = tested on: SkMel5
UACC257 = tested on: UACC257
UACC62 = tested on: UACC62
WM115 = tested on: WM115
WM1716 = tested on: WM1716
WM1745 = tested on: WM1745
WM3526 = tested on: WM3526
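Further: cells treated in 1,536-well plates, then fixed and DAPI-stained, with nuclei counted from automated high-throughput microscope images.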

| SMILES | cell count (G361) [%] | cell count (IPC-298) [%] | cell count (IST-MEL1) [%] | cell count (LB2518-MEL) [%] | cell count (LOXIMVI) [%] | cell count (MEL-HO) [%] | cell count (MZ2-MEL) [%] | cell count (MeWo) [%] | cell count (RPMI7951) [%] | cell count (RVH-421) [%] | cell count (SkMel28) [%] | cell count (SkMel2) [%] | cell count (SkMel30) [%] | cell count (SkMel5) [%] | cell count (UACC257) [%] | cell count (UACC62) [%] | cell count (WM115) [%] | cell count (WM1716) [%] | cell count (WM1745) [%] | cell count (WM3526) [%] |
| --- | --- | --- | --- | --- | --- | --- | --- | --- | --- | --- | --- | --- | --- | --- | --- | --- | --- | --- | --- | --- |
| O=C(Nc1cc(C(F)(F)F)cc(C(F)(F)F)c1)c1cc(Cl)ccc1O + Cn1cnc2c(F)c(Nc3ccc(Br)cc3Cl)c(C(=O)NOCCO)cc21 [selumetinib] (first compound 0.08 µM, partner dose 0.075 µM) | 68.8 | 52.4 | 73.7 | 54.4 | 170 | 83 | 76.9 | 73.5 | 114 | 85.4 | 47 | 66.6 | 61.1 | 67.1 | 87.9 | 47.2 | 51.8 | 64.9 | 71.4 | 55.8 |
| O=C(Nc1cc(C(F)(F)F)cc(C(F)(F)F)c1)c1cc(Cl)ccc1O + CC(C)C[C@H](NC(=O)[C@H](Cc1ccccc1)NC(=O)c1cnccn1)B(O)O [Bortezomib] (first compound 0.08 µM, partner dose 0.005 µM) | 1.43 | 7.65 | 16.5 | 3.74 | 40.9 | 28.3 | 6.82 | 15 | 4.67 | 42.1 | 27.9 | 42.2 | 25.7 | 37.8 | 75 | 64.1 | 20.3 | 17 | 22.5 | 26.1 |
| Cc1cc(N2CCOCC2)cc2[nH]c(-c3c(NC[C@@H](O)c4cccc(Cl)c4)cc[nH]c3=O)nc12 + O=S(=O)(c1ccccc1)N(CC(F)(F)F)c1ccc(C(O)(C(F)(F)F)C(F)(F)F)cc1 [T0901317] (first compound 1 µM, partner dose 7 µM) | 77.9 | 80.2 | 79.9 | 99.5 | 212 | 91.9 | 103 | 86.8 | 125 | 108 | 86.2 | 87.2 | 74.2 | 61.9 | 90.9 | 85.7 | 108 | 111 | 58.2 | 83.9 |
| O=C(O)c1ccc2c(c1)nc(Nc1cccc(Cl)c1)c1ccncc12 + Cn1cncc1[C@@](N)(c1ccc(Cl)cc1)c1ccc2c(c1)c(-c1cccc(Cl)c1)cc(=O)n2C [tipifarnib] (first compound 2 µM, partner dose 0.05 µM) | 48.2 | 72.9 | 77 | 81.1 | 39.2 | 54.5 | 74.5 | 68.8 | 42.5 | 65 | 36.1 | 57.1 | 65.6 | 62.8 | 74.8 | 72.9 | 68.9 | 77 | 74.7 | 55.8 |
| O=C(Nc1cc(C(F)(F)F)cc(C(F)(F)F)c1)c1cc(Cl)ccc1O + O=C(O)c1ccc(-c2c[nH]c3ncc(-c4ccccc4)cc23)cc1C1CCCC1 [GSK650394] (first compound 0.08 µM, partner dose 0.8 µM) | 62 | 83.7 | 53.7 | 102 | 96.7 | 69.3 | 88 | 86.4 | 78.8 | 90.4 | 52.2 | 66.1 | 76 | 80.4 | 62.8 | 103 | 93.2 | 74.1 | 85 | 85.2 |
| O=C(Nc1cc(C(F)(F)F)cc(C(F)(F)F)c1)c1cc(Cl)ccc1O + O=c1[nH]nc(Sc2ncc([N+](=O)[O-])s2)n1-c1ccc2c(c1)OCCO2 [BI78D3] (first compound 0.08 µM, partner dose 1 µM) | 89.1 | 81.4 | 95.1 | 93.1 | 138 | 78.7 | 94.9 | 78.1 | 101 | 122 | 94.8 | 91.5 | 80.7 | 87.3 | 100 | 73.1 | 86.4 | 93.8 | 78.7 | 88.3 |
| O=C(Nc1cc(C(F)(F)F)cc(C(F)(F)F)c1)c1cc(Cl)ccc1O + Cn1sc(=O)n(Cc2ccccc2)c1=O [TDZD-8] (first compound 0.08 µM, partner dose 2 µM) | 90.1 | 102 | 80.6 | 85.3 | 124 | 86.3 | 77.7 | 103 | 64 | 103 | 91.9 | 103 | 85.4 | 80.7 | 91 | 68.8 | 91.8 | 114 | 94.1 | 99.1 |
| O=C(O)c1ccc2c(c1)nc(Nc1cccc(Cl)c1)c1ccncc12 + COc1cc(Nc2ncc(F)c(Nc3ccc4c(n3)NC(=O)C(C)(C)O4)n2)cc(OC)c1OC [Tamatinib] (first compound 2 µM, partner dose 2 µM) | 60.6 | 73.3 | 58.4 | 77.4 | 13.9 | 49 | 65 | 66.7 | 16.4 | 82.3 | 68 | 74.4 | 74.6 | 37.4 | 71.4 | 59.9 | 93.9 | 70.6 | 31 | 69.7 |
| O=C(O)[C@@H]1[O][Sb](=[O])([O][Sb]2(=[O])[O][C@H]([C@H](O)CO)[C@H](O)[C@H](C(=O)O)[O]2)[O][C@H]([C@H](O)CO)[C@@H]1O (stereo not given in full) [stibogluconate] + Cc1cc(N2CCOCC2)cc2[nH]c(-c3c(NC[C@@H](O)c4cccc(Cl)c4)cc[nH]c3=O)nc12 [BMS536924] (first compound 10 µM, partner dose 1 µM) | 72.4 | 107 | 197 | 105 | 62.7 | 93.7 | 115 | 71.6 | 94.1 | 35 | 67.8 | 94.7 | 92.4 | 70.2 | 105 | 97.1 | 84.2 | 130 | 56.8 | 80.8 |
| O=C(Nc1cc(C(F)(F)F)cc(C(F)(F)F)c1)c1cc(Cl)ccc1O + COc1ccc(C2=N[C@@H](c3ccc(Cl)cc3)[C@@H](c3ccc(Cl)cc3)N2C(=O)N2CCNC(=O)C2)c(OC(C)C)c1 [Nutlin-3] (first compound 0.08 µM, partner dose 0.5 µM) | 67.3 | 83.4 | 83.4 | 73.1 | 91 | 82.5 | 82.3 | 101 | 121 | 73.2 | 54.5 | 96.1 | 109 | 73.1 | 73.7 | 69.8 | 83.5 | 89 | 128 | 96.1 |
| O=C(Nc1cc(C(F)(F)F)cc(C(F)(F)F)c1)c1cc(Cl)ccc1O + CN1CCN(c2ccc3nc(-c4c(N)c5c(F)cccc5[nH]c4=O)[nH]c3c2)CC1 [Dovitinib] (first compound 0.08 µM, partner dose 0.5 µM) | 65.6 | 51.9 | 61.7 | 46.8 | 121 | 70.8 | 36.9 | 39.6 | 79.7 | 83.2 | 40.3 | 52.9 | 78.8 | 52.7 | 75.3 | 75.5 | 53.5 | 65.1 | 62.8 | 72.1 |
| Cc1cc(N2CCOCC2)cc2[nH]c(-c3c(NC[C@@H](O)c4cccc(Cl)c4)cc[nH]c3=O)nc12 + COC(=O)c1sccc1S(=O)(=O)Nc1ccc(Nc2ccccc2)cc1OC [GSK0660] (first compound 1 µM, partner dose 5 µM) | 79.2 | 85.3 | 99.5 | 95.7 | 107 | 86.4 | 94.9 | 89.8 | 96.8 | 91.1 | 79.4 | 85.6 | 88.3 | 53.7 | 82.1 | 121 | 87.1 | 93.8 | 61.4 | 75.9 |
| O=C(Nc1cc(C(F)(F)F)cc(C(F)(F)F)c1)c1cc(Cl)ccc1O + C=C(c1ccc(C(=O)O)cc1)c1cc2c(cc1C)C(C)(C)CCC2(C)C [Bexarotene] (first compound 0.08 µM, partner dose 10 µM) | 69.8 | 71.3 | 83.7 | 83.5 | 91 | 74.9 | 59.7 | 76 | 67.8 | 92.4 | 66.5 | 85.3 | 102 | 79.1 | 86.1 | 87.8 | 85.3 | 87.7 | 66.5 | 84.1 |
| O=C(Nc1cc(C(F)(F)F)cc(C(F)(F)F)c1)c1cc(Cl)ccc1O + CCCCCCCCCCCCCCCCCCOP(=O)([O-])OC1CC[N+](C)(C)CC1 [Perifosine] (first compound 0.08 µM, partner dose 2 µM) | 97.2 | 88.1 | 84.8 | 90 | 84.8 | 85.8 | 82.2 | 83.7 | 30 | 199 | 66.4 | 97.6 | 67.5 | 91 | 108 | 109 | 67.1 | 84.6 | 95.5 | 83.7 |
| O=C(Nc1ccccc1)c1cc([N+](=O)[O-])ccc1Cl + COC(=O)c1sccc1S(=O)(=O)Nc1ccc(Nc2ccccc2)cc1OC [GSK0660] (first compound 10 µM, partner dose 5 µM) | 79.1 | 97.6 | 97.5 | 90.1 | 87 | 77.4 | 85.2 | 82.6 | 93.3 | 74 | 69.9 | 87.4 | 91.3 | 62.7 | 81.7 | 69.1 | 80.4 | 95.4 | 73.7 | 80.5 |
| O=C(O)c1ccc2c(c1)nc(Nc1cccc(Cl)c1)c1ccncc12 + Nc1cccc2c1CN(C1CCC(=O)NC1=O)C2=O [lenalidomide] (first compound 2 µM, partner dose 5 µM) | 67.3 | 84.8 | 79.6 | 98.9 | 49.8 | 69.7 | 65.4 | 79.9 | 76.6 | 70.5 | 57 | 79.5 | 68.5 | 71 | 85.1 | 68.2 | 77.4 | 97.6 | 64.8 | 74.8 |
| O=C(Nc1cc(C(F)(F)F)cc(C(F)(F)F)c1)c1cc(Cl)ccc1O + CS(=O)(=O)CCNCc1ccc(-c2ccc3ncnc(Nc4ccc(OCc5cccc(F)c5)c(Cl)c4)c3c2)o1 [lapatinib] (first compound 0.08 µM, partner dose 4 µM) | 72.7 | 75.7 | 90.4 | 114 | 92.2 | 77.2 | 56 | 103 | 90.3 | 97 | 82 | 74.9 | 104 | 68 | 87.1 | 75 | 125 | 88.4 | 96.2 | 82.4 |
